Measurements as given in paper PMC6919601, “Identification of Plasmodium dipeptidyl aminopeptidase allosteric inhibitors by high throughput screening” (PLoS ONE, 2019).
Screen size: about 110,000 compounds; about 230 (0.21%) showed an effect of 50% or more. The list shows a part of the results.

Molecular target: DPAP1 (Plasmodium falciparum, UniProt Q8IIJ9)
Experiment: primary screen, percent inhibition; read by cleavage of a fluorogenic dipeptide substrate; higher = more effect of the substance
Set-up: species or system P. falciparum D10 trophozoite lysates; single well
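Further: 30 min substrate incubation versus DMSO and 10 µM JCP410 controls.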

Sequence of DPAP1 (Q8IIJ9 whole entry, looked up): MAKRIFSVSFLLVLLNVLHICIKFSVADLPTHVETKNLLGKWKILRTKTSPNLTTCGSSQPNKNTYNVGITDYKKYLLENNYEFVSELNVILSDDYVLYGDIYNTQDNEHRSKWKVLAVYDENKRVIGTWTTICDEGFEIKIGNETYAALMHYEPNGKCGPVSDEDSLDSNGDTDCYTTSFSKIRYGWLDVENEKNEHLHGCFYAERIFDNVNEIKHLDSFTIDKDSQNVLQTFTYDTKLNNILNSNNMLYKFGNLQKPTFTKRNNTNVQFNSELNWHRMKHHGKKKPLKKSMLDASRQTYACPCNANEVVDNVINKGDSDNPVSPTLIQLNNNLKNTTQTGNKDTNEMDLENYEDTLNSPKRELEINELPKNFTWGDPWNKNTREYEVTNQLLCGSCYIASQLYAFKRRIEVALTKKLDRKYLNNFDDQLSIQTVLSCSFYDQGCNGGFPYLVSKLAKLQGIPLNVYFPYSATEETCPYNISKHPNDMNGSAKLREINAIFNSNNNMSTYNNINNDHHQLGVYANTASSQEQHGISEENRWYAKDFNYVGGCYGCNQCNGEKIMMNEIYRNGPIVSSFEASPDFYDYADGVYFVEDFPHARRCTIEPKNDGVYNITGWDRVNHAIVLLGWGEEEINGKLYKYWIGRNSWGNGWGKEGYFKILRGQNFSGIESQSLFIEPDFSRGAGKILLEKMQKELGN

Row | Structure (SMILES) | % Inhibition @ 10 uM [%]
1 | O=c1c2oc3ccccc3c2ncn1Cc1cccc(C(F)(F)F)c1 | -2.97
2 | Clc1ccc(CNc2nc3ccccc3n2CCN2CCOCC2)cc1 | -1.11
3 | Cn1cnnc1SCc1ccc(Cl)cc1Cl | -1.32
4 | CN(C)CCNC(=O)CNC(=S)N(CCCN1CCOCC1)Cc1cccs1 | -3.94
5 | O=C(NCc1ccc(F)cc1)c1ccccc1C(=O)NCc1ccc(F)cc1 | 3.67
6 | COc1ccc(C(=O)Nc2ccccc2C(=O)O)cc1 | -3.92
7 | O=C1CSC(c2ccc(Cl)c(Cl)c2)N1CC12CC3CC(CC(C3)C1)C2 (stereo not shown) | -0.415
8 | CN(C)CCNC(=O)CSCc1cnn(-c2ccccc2)c1-n1cccc1 | 32.6
9 | COc1ccc(C2(C(=O)Nc3cccc(C(F)(F)F)c3)CCOCC2)cc1OC | 2.43
10 | CC(C)C[C@H](NC(=O)OCc1ccccc1)C(=O)N[C@H](C#N)CC(=O)OC(C)(C)C | 1.71
11 | CCOC(=O)C1CCN(C/C=C/c2ccccc2)CC1 | -1.78
12 | O=C(c1csc2c1CCCCC2)N1CCN(c2ncccn2)CC1 | -1.44
13 | Cc1ccc(C(=O)N2C3=C(CCCC3)C(=O)NC23CCCCC3)cc1 | -3.34
14 | CCC(=O)N1C(C(=O)NCc2ccccc2F)CSC12CCN(C)CC2 (stereo not shown) | 4.81
15 | O=C(O)c1[nH]c2ccccc2c1S(=O)c1ccc(Cl)cc1 (stereo not shown) | 3.24
16 | Cc1csc(NC(=O)c2sc3nc(C)c4c(c3c2N)CCCC4)n1 | 0.795
17 | CCOc1ccc(CN2c3cccc4cccc(c34)S2(=O)=O)cc1OCC | -3.72
18 | CS(=O)(=O)N1CCC(C(=O)Nc2ccc(Oc3ccccc3)cc2)CC1 | -0.622
19 | CC(C)C[C@H](NC(=O)OCc1ccccc1)C(=O)N[C@H](C#N)COC(=O)Nc1ccccc1 | -1.41
20 | COc1ccc(C2=NOC(Cn3c(Cc4ccc(Cl)cc4)nc4c3c(=O)n(C)c(=O)n4C)C2)cc1 (stereo not shown) | 1.91
21 | COC(=O)c1ccc(C2Oc3ccc(C)cc3C3=C2C(c2ccccc2)n2ncnc2N3)cc1 (stereo not shown) | -5.19
22 | O=C(/C=C/c1ccccc1O)c1ccccc1 | -6.2
23 | COc1ccc(CNc2ccc3c(c2)OCO3)cc1C | 0.00588
24 | O=C(Cn1cnc2c(nnn2Cc2ccc(F)cc2)c1=O)NC1CCCC1 | -2.16
25 | COc1cccc(CNCc2ccc(F)cc2)c1OC | -4.16

Row | Structure (SMILES) | % Inhibition @ 10 uM [%]
26 | O=C(NCc1ccc2c(c1)OCO2)C1CCCN(S(=O)(=O)c2ccc(Br)s2)C1 (stereo not shown) | -2.56
27 | CC(C)C(=O)Nc1nnc(S(=O)(=O)N(C)Cc2ccc(Cl)cc2)s1 | -5.9
28 | CC(C)N(C(=O)C(CC1CCCCC1)C(=O)NCC#N)C(C)C (stereo not shown) | -1.83
29 | Cc1ccsc1-c1nc(CSCC(=O)NC(C)c2ccccc2)c(C)o1 (stereo not shown) | 5.56
30 | Cc1ccc(/C=C(\C#N)C(N)=S)o1 | 79.5
31 | COc1ccc(S(=O)(=O)N(CC(=O)NC2CCCCC2)c2cccc(Cl)c2)cc1 | -1.27
32 | COc1ccc(C2=NN(CC(=O)NCCc3ccc(C)cc3)C(=O)CC2)cc1 | 3.24
33 | O=C(CSc1nc2ccccc2[nH]1)NC1CCCC1 | -4.3
34 | COc1ccccc1C1CC(=O)Nc2c1ccc1ccccc21 (stereo not shown) | 6.24
35 | COc1cc(O)ccc1C1Nc2ccccc2-c2cc(C)nn21 (stereo not shown) | -3.71
36 | CCOc1cccc(C(=O)N(Cc2cccs2)C2CCS(=O)(=O)C2)c1 (stereo not shown) | 2.1
37 | CC(=O)c1cc(-c2ccccc2)[nH]c1NC(=O)c1ccccc1 | -0.736
38 | COc1ccccc1NC(=O)c1cc(OC)c(OC)c(OC)c1 | -5.67
39 | Cc1ccc(C(=O)N2CCCN(C(=O)c3ccc(C)cc3)CC2)cc1 | -4.63
40 | CC(C)(C)c1cc(CCc2nc3ccccc3[nH]2)cc(C(C)(C)C)c1O | -9.55
41 | COc1cc(NS(=O)(=O)c2ccc(N3C(=O)c4ccccc4C3=O)cc2)nc(OC)n1 | -1.96
42 | CC(=O)c1c(/N=C/N(C)C)nc(C)nc1-c1ccccc1 | 2.01
43 | Cc1ccc(S(=O)(=O)NC(=S)NCc2cccc(Oc3ccccc3)c2)cc1 | 9.01
44 | CC(C)c1cc(C(C)C)c(S(=O)(=O)N2CCCCCC2)c(C(C)C)c1 | 1.48
45 | Cc1ccc2cc(C)c(NCc3cccnc3)nc2c1 | -1.37
46 | CCN(CC)CCCN(C)C(=O)c1noc2c1COc1ccccc1-2 | -0.631
47 | CC1=NN(C(=O)Cc2ccc(C)cc2)C(O)(c2cccnc2)C1 (stereo not shown) | -1.2
48 | COc1ccc(CCNC(=O)C(=O)Nc2nccs2)cc1OC | 2.09
49 | CCn1c(COc2ccc3c(c2)OCO3)nnc1SCC(N)=O | -1.3
50 | COc1ccccc1CN1COc2c(Cl)cc3c4c(c(=O)oc3c2C1)CCC4 | 0.895

Row | Structure (SMILES) | % Inhibition @ 10 uM [%]
51 | CN(CCCNC(=O)Cn1cc2c(n1)CCCC2)C1CCCCC1 | 3.4
52 | Cc1c(NC(=O)NCCC2=CCCCC2)sc2nc3n(c(=O)c12)CCC(C)CC3 (stereo not shown) | 3.29
53 | Cc1ccc(C(=O)Nc2ccc(N3CCN(C)CC3)cc2)c(Cl)c1 | -2.6
54 | O=C1C(/C(=N\Cc2cccnc2)NCc2cccnc2)=C(O)c2ccccc21 | -0.864
55 | Cc1[nH]c2ccc(C(=O)NCCCN3CCN(C)CC3)cc2c1C | -4.33
56 | CCOc1ccc(S(=O)(=O)Nc2ccncc2)c(C)c1C | 3.36
57 | COc1ccc2[nH]c(C)c(CCNCc3c(C)nn(C)c3Cl)c2c1 | -4.35
58 | O=C(NCc1ccccn1)C1CCN(c2ncnc3c2nc2n3CCCCC2)CC1 | 5.7
59 | NC1=C(c2nc(O)c3ccccc3n2)C(=O)CN1c1ccc(Cl)cc1 | 0.751
60 | Cc1cc(C)nc(SCC(=O)c2cccc3ccccc23)n1 | -7.23
61 | CN(Cc1ccco1)S(=O)(=O)c1ccc2[nH]cc(C=O)c2c1 | 0.718
62 | CSc1nc(C)cc(C(F)(F)F)c1C#N | 4.97
63 | CCOC(=O)C1=C(C)N=c2s/c(=C\c3ccc(N(C)C)cc3)c(=O)n2C1c1ccc2c(c1)OCO2 (stereo not shown) | -5.28
64 | CCC1CCCCN1CCCNC(=O)C1CCN(S(=O)(=O)N2CCCCC2)CC1 (stereo not shown) | -1.34
65 | CCC(C)CNC(=O)C(C)Oc1ccc(Cl)cc1Cl (stereo not shown) | 4.05
66 | COc1cc(OC)cc(C(=O)N2CCCC2)c1 | -1.05
67 | CCN1CCN(C(=O)c2ccc(Cn3c(SCc4ccc(F)cc4)nc4ccncc43)cc2)CC1 | -0.23
68 | CCOc1ccc(NC(=O)c2cc(OC)c(OC)c(OC)c2)cc1 | -3.34
69 | CC(C)CS(=O)(=O)C1=NN2C(=N)/C(=C\c3ccc(O)c(Br)c3)C(=O)N=C2S1 | 1.9
70 | COc1cccc2c1cc1c(=O)n(CC(=O)NCc3ccccc3Cl)nc(C)n12 | 1.68
71 | Cc1ccc(S(=O)(=O)N2CC(=O)Nc3ccccc32)cc1C | -0.992
72 | CCC(C)Cn1c(CCNC(=O)c2ccco2)nc2ccccc21 (stereo not shown) | -1.35
73 | O=C(Cn1cnc2sc3c(c2c1=O)CCCC3)NCCCC(=O)N1CCC2(CC1)OCCO2 | -6.13
74 | CC(C)c1ccc(CN2CCN(c3cccc(Cl)c3)CC2)cc1 | -2.81
75 | COC(=O)c1ccc(NC(=O)[C@@H]2C3C=CC(C3)[C@@H]2C(=O)O)cc1 (stereo partly shown) | -4.43

Row | Structure (SMILES) | % Inhibition @ 10 uM [%]
76 | CCOC(=O)NC(=O)/C(=C/Nc1ccc(Cl)c(Cl)c1Cl)C(C)=O | -0.996
77 | CC(=O)c1cc2c(cc1NC(=O)c1ccc(C)cc1)OCO2 | -5.32
78 | CC(C)(C)NC(=O)c1cnn2c1NC(c1ccc(F)cc1)CC2C(F)(F)F (stereo not shown) | -1.93
79 | Cn1cc(Br)c(C(=O)Nc2ccc(Cl)cc2Cl)n1 | -0.687
80 | CC(C)c1ccc(C2C(C(=O)c3ccccc3)=C(O)C(=O)N2CCCn2ccnc2)cc1 (stereo not shown) | -1.51
81 | c1ccc(CN2CCN(Cc3ccc4ccccc4c3)CC2)cc1 | -6.21
82 | OC1CCN(Cc2cccc(C(F)(F)F)c2)CC1 | -0.192
83 | CC1CCN(C(=O)c2cc(Br)cc(Br)c2)CC1 | 7.5
84 | O=C(O)CC(NS(=O)(=O)c1ccc(Cl)cc1)c1ccccc1 (stereo not shown) | 4.74
85 | COc1ccc(C2C(C#N)=C(N)Oc3c2cc(Cl)c2ccccc32)cc1 (stereo not shown) | 5.09
86 | c1ccc2c(SCCc3ccncc3)cccc2c1 | 0.968
87 | Cc1cc(C)c2c(-n3cccc3)c(C(=O)N3CCN(C(=O)c4ccco4)CC3)sc2n1 | -4.68
88 | O=C(NC(=O)c1cccc(C(F)(F)F)c1)OC[C@@H]1CCCN2CCCCC12 (stereo partly shown) | -4.49
89 | Cc1ccc(-c2nc3sc(C)c(C)c3c(=O)o2)cc1 | 1.27
90 | CCc1ccc(CNC(=O)CCc2cn(C)c3ccccc23)cc1 | 5.23
91 | COC(=O)c1sccc1NC(=S)N1CC=C(c2ccccc2)CC1 | -8.16
92 | O=C(COc1ccc2ccccc2c1)Nc1ccc(S(=O)(=O)Nc2ccc(F)cc2)cc1 | 0.538
93 | COc1ccc2c(c1)CN(Cc1ccccc1)CO2 | -1.82
94 | CCO/C(O)=C1\C(C)=NC2=C(C(=O)CC(C)(C)C2)C1c1ccc(Br)o1 (stereo not shown) | 1.24
95 | CCOc1ccccc1-c1cc(NC(=O)Cn2ncc3c(=O)oc4ccccc4c32)on1 | -0.431
96 | COc1ccc2nc3sc(C(=O)NCCC(C)C)cc3cc2c1 | -5.98
97 | CCc1ccc(OCC(=O)N(Cc2cccc(Cl)c2)C2CCS(=O)(=O)C2)cc1 (stereo not shown) | -6.94
98 | CCCCC(=O)Nc1ccc(S(=O)(=O)NC(=O)CCC)cc1 | -3.19
99 | Cc1nn(CC(=O)NCCC(C)C)c(=O)c2cc3sccc3n12 | 1.8
100 | Brc1csc(CN2CCc3c([nH]c4ccccc34)C2)c1 | 7.55
